Source: PubChem BioAssay AID624296 (National Center for Advancing Translational Sciences (NCATS), 2012)
About 9,900 (2.8%) of roughly 350,000 compounds were called active. Inconclusive means that the source gave no clear call. Such entries were picked first, then a sample of the others. Calls come from the whole dose curve; as a rule, active = well fitted activation curve with a large enough effect; inconclusive = small, poorly fitted or top-dose-only effect; inactive = no such curve, though single readings can be large or run the other way. No potency is given beside an inconclusive call; the fits are too rough.

Experiment: A quantitative high throughput screen for small molecules that induce DNA re-replication in MCF 10a normal breast cells. For activity, positive = re-replication: % of control where 0% means no effect. Note: nearly all actives have a fitted effect of over 50% in size.
Conditions: MCF 10A DNA re-replication, Hoechst nuclear intensity, 48 h; activity, positive = re-replication: at 46.1 µM (top of the series)
Potency is the fitted concentration of half-maximal effect; tags give direction and shape of the fitted curve.

| SMILES | Potency | activity, positive = re-replication |
| --- | --- | --- |
| Cc1[nH]n2c(=O)c3c(nc2c1-c1cccc2ccccc12)CCC3 | inconclusive [activator, full curve, poor fit] |  |
| CC1CCCN(Cc2c(O)ccc3c4c(c(=O)oc23)CCCC4)C1 (stereo not drawn) | inconclusive [activator, partial curve, poor fit] |  |
| Cc1ccc(OCCC(=O)N2CCN(c3ccc(O)cc3)CC2)cc1 | inconclusive [activator, partial curve] |  |
| Cc1cccc(OCCSc2nnc(-c3ccoc3C)n2C)c1 |  | inactive: 12.1% |
| Nc1c(N(Cc2ccccc2)C(=O)COc2ccc([N+](=O)[O-])cc2)c(=O)[nH]c(=O)n1Cc1ccccc1 | inconclusive [activator, single point] |  |
| O=C(CNC(=O)c1cccs1)Nc1cccc(S(=O)(=O)N2CCOCC2)c1 |  | inactive: 2.22% |
| COCc1nnc(SCC(=O)NC(C)c2ccccc2)n1-c1ccccc1 (stereo not drawn) | inconclusive [activator, partial curve, poor fit] |  |
| Cc1cc(C)cc(OCC(=O)NNC(=O)CCN2C(=O)c3ccccc3C2=O)c1 | inconclusive [activator, partial curve, poor fit] |  |
| CCC1CCCCN1CC(=O)c1c(C)[nH]c2ccccc12 (stereo not drawn) | inconclusive [activator, partial curve, poor fit] |  |
| COc1ccc(C(NC(=O)c2cccnc2)c2cc(Cl)c3cccnc3c2O)cc1OC (stereo not drawn) | active: 12.6 µM |  |
| CCC1CCCCN1c1nc(-c2ccncc2)nc2ccccc12 (stereo not drawn) | active: 23.1 µM |  |
| COc1ccccc1NC(=O)CNC(c1ccccc1)c1ccccc1 | inconclusive [activator, single point] |  |
| Cc1ccc(/C=C/C(=O)c2ccccc2)cc1 | inconclusive [activator, single point] |  |
| COC(=O)c1ccc(CSc2nnc(CS(=O)Cc3ccc(Br)cc3)n2-c2ccccc2)cc1 (stereo not drawn) | inconclusive [activator, single point] |  |
| COC(=O)C1=CN(Cc2cccs2)C=C(C(=O)OC)C1c1cccc(Cl)c1 | active: 7.31 µM |  |
| CCOc1ccc(NC(=O)NCC2CCN(c3ccc(OC)cc3)C2)cc1 (stereo not drawn) | inconclusive [activator, partial curve, poor fit] |  |
| O=C(CCS(=O)(=O)c1ccccc1)Nc1nnc(C(F)(F)F)s1 | active: 23.1 µM |  |
| CC(C)(C)c1ccc(Cn2nnc3c(=O)[nH]c(C4CCCN(C(=O)Cc5cccs5)C4)nc32)cc1 (stereo not drawn) | inconclusive [activator, single point] |  |
| Cc1ccc(NC(=O)N(CCCN2CCOCC2)Cc2cc3cc4c(cc3[nH]c2=O)OCO4)cc1 |  | inactive: 24.4% |
| CC(C)CCNC(=O)C(CC(C)C)N(Cc1ccc2c(c1)OCO2)C(=O)c1snc(C(N)=O)c1N (stereo not drawn) | inconclusive [activator, partial curve, poor fit] |  |
| COc1cc2[nH]c(=S)n(C3CCCC3)c(=O)c2cc1OC | inconclusive [activator, partial curve, poor fit] |  |
| Cc1cccc(NC(=S)NNC(=O)c2ccccc2OC(F)F)c1 | inconclusive [activator, partial curve, poor fit] |  |
| Cc1cc(Cl)ccc1Oc1ccc(C(N)=O)cc1[N+](=O)[O-] | inconclusive [activator, single point] |  |

| SMILES | Potency | activity, positive = re-replication |
| --- | --- | --- |
| CCCc1c(C(=O)N/N=C(\C)c2ccc(O)cc2)nnn1-c1nonc1N | inconclusive [activator, single point] |  |
| O=C(Nc1ccc2c(c1)OCCO2)c1ccc(Cl)c(Cl)c1 |  | inactive: 9.72% |
| O=C(/C=C/c1ccco1)Nc1cccnc1 |  | inactive: -11.9% |
| Cc1cccc(S(=O)(=O)Nc2ccc(-c3nc4ccc(C)cc4s3)cc2)c1 | active: 18.4 µM |  |
| CCCCNC(=O)[C@@](CC)(ONc1ccccc1C(F)(F)F)c1cccc2ccccc12 | inconclusive [activator, partial curve, poor fit] |  |
| O=C(/C=C/c1cccc(F)c1)OCC(=O)c1ccc[nH]1 |  | inactive: -2.01% |
| COc1ccc(N(C)C(=O)Cc2c(C(=O)O)[nH]c3ccccc23)c(OC)c1 | inconclusive [activator, partial curve, poor fit] |  |
| COc1ccc(/C=C2\C(=O)N(c3c(Cl)cc(Cl)cc3Cl)N=C2NC(=O)c2cccc([N+](=O)[O-])c2)cc1 | inconclusive [activator, single point] |  |
| Cc1ccc(C(=O)C2=C(O)C(=O)N(CC3CCCO3)C2c2ccccc2F)o1 (stereo not drawn) |  | inactive: -0.114% |
| CCn1c(SCC(=O)NC(=O)c2ccccc2OC)nc2ccccc21 |  | inactive: -1.51% |
| CN(Cc1cn(C)c2ccccc12)C(=S)Nc1cc(F)cc(F)c1 |  | inactive: -64.9% |
| CCCc1cc(=O)oc2cc(OCC(=O)NC3CCN(Cc4ccccc4)CC3)ccc12 |  | inactive: 4.62% |
| CCN1CCN(c2nnc(-c3ccc(F)cc3)c3ccccc23)CC1 | inconclusive [activator, partial curve, poor fit] |  |
| c1ccc(-c2cc3c(N4CCN(c5ccccc5)CC4)ncnc3s2)cc1 | active: 11.6 µM |  |
| COc1ccc(N2CCN(C(=O)CCS(=O)(=O)c3ccc4c(c3)CCN4C(=O)C3CC3)CC2)cc1 | inconclusive [activator, partial curve] |  |
| O=C(c1cccc(COc2cccc3ccccc23)c1)N1CCCC1 | inconclusive [activator, single point] |  |
| COc1ccc(CN(C)C(=O)C23CC4CC(CC(C4)C2)C3)c(OC)c1 | active: 13 µM |  |
| N#CC(C#N)=Cc1c[nH]c(=O)c(C#N)c1Nc1ccccc1 | inconclusive [activator, partial curve, poor fit] |  |
| Cc1ccc2nc(SCC(=O)c3ccccc3)nc(=O)n2c1 |  | inactive: 0.695% |
| Cc1ccc(S(=O)(=O)c2nc(-c3ccc(F)cc3)oc2N2CCOCC2)cc1 |  | inconclusive: -24.9% [activator] |
| O=C(Nc1ccc(C2=NCCN2)cc1)c1ccc(C(=O)Nc2ccc(C3=NCCN3)cc2)c([N+](=O)[O-])c1 | inconclusive [activator, single point] |  |
| Cc1cccc(NC(=O)c2nc(S(=O)(=O)Cc3ccccc3)ncc2Cl)c1 | inconclusive [activator, single point] |  |
| COc1cc(Cl)c(CN2CCC(CO)(CCOc3ccccc3)CC2)cc1OC | inconclusive [activator, partial curve, poor fit] |  |

| SMILES | Potency | activity, positive = re-replication |
| --- | --- | --- |
| CCC(C)c1ccccc1NC(=S)Nc1cccnc1 (stereo not drawn) | inconclusive [activator, single point] |  |
| NS(=O)(=O)c1ccc(CCNC(=O)c2cc(-c3cccs3)nc3ccccc23)cc1 | inconclusive [activator, single point] |  |
| CCC(C)c1ccc(O)c(/C=N/O)c1 (stereo not drawn) | inconclusive [activator, single point] |  |
| O=C(NC(=S)N1CCN(c2ccc([N+](=O)[O-])cc2)CC1)c1ccc(F)cc1 | inconclusive [activator, single point] |  |
| Cn1c(=O)n(Cc2ccccc2)c(=O)c2c1nc1n2CCN1Cc1ccco1 | active: 0.731 µM |  |
| COc1ccc(-c2cc(C(F)(F)F)nc(-n3cc(Cl)cn3)n2)cc1 | inconclusive [activator, single point] |  |
| COc1ccccc1Nc1nc(-c2ccc([N+](=O)[O-])cc2)nc2ccccc12 | inconclusive [activator, single point] |  |
| CCOC(=O)c1cc2nc(Nc3ccc(OC)cc3)sc2s1 | active: 4.61 µM |  |
| Nc1ccccc1-c1nnc(SCc2ccccc2Cl)[nH]c1=O | inconclusive [activator, partial curve, poor fit] |  |
| O=C(Nc1ccc(Cl)cc1)N1CCC(c2nc(-c3ccccc3Cl)no2)CC1 | inconclusive [activator, single point] |  |
| Cc1cc2cc(CCNC(=O)c3cccc([N+](=O)[O-])c3)c(=O)[nH]c2cc1C | inconclusive [activator, single point] |  |
| N#C/C(=C/c1ccc(-c2ccc(Br)cc2)o1)C(=O)NC1CCCCC1 | active: 18.4 µM |  |
| CCc1ccc(-c2cc(C)no2)cc1S(=O)(=O)Nc1cccc(CN2CCCC2)c1 |  | inactive: 0.119% |
| CN[C@@H]1[C@H](O)[C@H](NC)[C@H]2O[C@@]3(O)C(=O)C[C@@H](C)O[C@H]3O[C@@H]2[C@H]1O |  | inactive: 0.254% |
| Cc1cc([N+](=O)[O-])c2[nH]c(C(=O)N/N=C/c3ccccc3C(=O)O)c(-c3ccccc3)c2c1 | inconclusive [activator, partial curve, poor fit] |  |
| O=C(COC(=O)/C=C/c1cccc(Cl)c1)NC1CC1 |  | inactive: 0.291% |
| CCOC(=O)C1=CC[C@@H](c2cc(OC)c(OC)c(OC)c2)N(S(=O)(=O)c2ccc(C)cc2)[C@H]1C(=O)OCC |  | inactive: -3.64% |
| O=C(CSc1nnc2c(n1)[nH]c1ccccc12)N1CCCCC1 |  | inactive: -2.99% |
| COC(C[C@@H]1O[C@@H]1[C@H](O)[C@@H](C)OCc1ccccc1)OC |  | inactive: 5.21% |
| CC(CC(=O)Nc1ccc(Cl)c(S(=O)(=O)N2CCOCC2)c1)c1ccccc1 (stereo not drawn) | inconclusive [activator, partial curve] |  |
| COc1c(/C=N/Nc2nc(N3CCCCC3)nc(N3CCCCC3)n2)cccc1[N+](=O)[O-] |  | inactive: 18.4% |
| CCN(CC)CCN1c2ccccc2Sc2ccccc21 |  | inactive: 0.372% |
